# Laboratory results reported in PubChem BioAssay AID1745853 (National Center for Advancing Translational Sciences (NCATS), 2022).
# Some of the results follow. These are further read-outs of the screen, such as a control signal, another cell line or another target. No call is given for them.
# Columns and labels:
# Test in all cases: Primary Screen for Target Class Profiling of Small Molecule Inhibitors of Methyltransferases
# [1] = biological target: Glycine N-methyltransferase (Homo sapiens) (UniProt Q14749); settings: purified enzyme, MTase-Glo SAH luminescence; measured here: GNMT inhibition; at 40 µM; stronger effect = lower value
# In short: (§1)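 Each enzyme was assayed with SAM and its substrate. SAH formation detected by MTase-Glo luminescence; single-point 40 uM screen[…].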
# [2] = biological target: Guanidinoacetate N-methyltransferase (Homo sapiens) (UniProt Q14353); settings: purified enzyme, MTase-Glo SAH luminescence; measured here: GAMT inhibition; at 40 µM; stronger effect = lower value
# In short: as §1
# [3] = biological target: Histamine N-methyltransferase (Homo sapiens) (UniProt P50135); settings: purified enzyme, MTase-Glo SAH luminescence; measured here: HNMT inhibition; at 40 µM; stronger effect = lower value
# In short: as §1
# [4] = biological target: Nicotinamide N-methyltransferase (Homo sapiens) (UniProt P40261); settings: purified enzyme, MTase-Glo SAH luminescence; measured here: NNMT inhibition; at 40 µM; stronger effect = lower value
# In short: as §1
# [5] = biological target: Phenylethanolamine N-methyltransferase (Homo sapiens) (UniProt P11086); settings: purified enzyme, MTase-Glo SAH luminescence; measured here: PNMT inhibition; at 40 µM; stronger effect = lower value
# In short: as §1
# On the % scale 0 is the no-effect control and ±100 the full control effect.
Compound,"activity change, negative = inhibition [1] [%]","activity change, negative = inhibition [2] [%]","activity change, negative = inhibition [3] [%]","activity change, negative = inhibition [4] [%]","activity change, negative = inhibition [5] [%]"
CCc1ccc(C2c3cccn3-c3ccccc3CN2C(=O)Nc2cccc(C)c2)cc1 (stereo not given),8.94,4.42,-1.16,0.771,1.83
CC(=O)OC[C@]12C[C@H](OC(C)=O)C(C)=C[C@H]1O[C@@H]1[C@H](O)[C@@H](O)[C@@]2(C)[C@]12CO2,0,7.74,4.88,-2.5,6.4
Cc1cccc(C2c3cccn3-c3ccccc3CN2C(=O)Nc2ccccc2Br)c1 (stereo not given),4.82,-1.54,0.759,-6.24,-2.33
Cn1nc(-c2ccc3ccccc3c2)cc1[C@H]1CN2CC[C@H]1C[C@@H]2CNC(=O)c1ccco1,-7.01,-8.48,-28.8,-13.6,-6.36
Cc1ccc(NC(=O)N2Cc3ccccc3-n3cccc3C2c2ccc(Cl)cc2)cc1 (stereo not given),-3.15,2.68,-0.971,0.367,1.12
Cc1ccc(C2c3cccn3-c3ccccc3CN2C(=O)NCCc2ccccc2)cc1 (stereo not given),12.5,0,9.22,11,9.43
CC1=CC2/C=C(\C)CCC(O)C(O)C(O)CC(=O)C23C(=O)NC(CC(C)C)C3C1C (stereo not given),-0.962,-1.23,-6.86,-15.4,-0.827
Cc1ccc(C2c3cccn3-c3ccccc3CN2C(=O)NCc2ccco2)cc1 (stereo not given),7.42,0.854,3.97,-0.644,2.94
Cc1cc(C)cc(NC(=O)N2Cc3ccccc3-n3cccc3C2C)c1 (stereo not given),7.45,0,3.39,6.66,6.12
COC1CN(c2ccc(C)cc2)C12CCNCC2 (stereo not given),-1.28,0.262,0.462,3.59,2.88
O=C(O)CCCCCCNC1c2ccccc2CCc2ccccc21,1.46,4.32,12.4,-8.86,5.52
Cc1ccc(C)c(NC(=O)N2Cc3ccccc3-n3cccc3C2c2ccccc2C)c1 (stereo not given),4.43,0,3.51,1.31,-0.745
Cc1ccc(C2c3cccn3-c3ccccc3CN2C(=O)Nc2ccc(C)cc2Cl)cc1 (stereo not given),7.39,-1.02,5.35,-3.71,0.438
CN=C(NS(=O)(=O)c1ccc(Cl)cc1)N1C[C@H](c2ccccc2)C(c2ccc(Cl)cc2)=N1,5.36,-16.8,7.66,-37.9,-15.9
CC1c2cccn2-c2ccccc2CN1C(=O)NC1CCCC1 (stereo not given),7.23,5.48,4.86,-6.45,4.37
COC1(C[S@@](=O)c2ccccc2)CCN(CCc2c[nH]c3ccc(F)cc23)CC1,-0.743,-0.784,-1.79,-14,-9.88
